We go through 5 molecules from PMC3038938.

No constants are given. Whether binding was seen depends on the method and setting. In cells and extracts the contact can be indirect. Some results given as binding are weak or reduced against the parent protein; the word gives no strength. For some assays here: Where a sequence is shown, tags or fusion partners need not be part of it.

The target in assay [1] is T1, C-terminally GFP-tagged cGKII (mouse) (UniProt Q61410).
T1 sequence: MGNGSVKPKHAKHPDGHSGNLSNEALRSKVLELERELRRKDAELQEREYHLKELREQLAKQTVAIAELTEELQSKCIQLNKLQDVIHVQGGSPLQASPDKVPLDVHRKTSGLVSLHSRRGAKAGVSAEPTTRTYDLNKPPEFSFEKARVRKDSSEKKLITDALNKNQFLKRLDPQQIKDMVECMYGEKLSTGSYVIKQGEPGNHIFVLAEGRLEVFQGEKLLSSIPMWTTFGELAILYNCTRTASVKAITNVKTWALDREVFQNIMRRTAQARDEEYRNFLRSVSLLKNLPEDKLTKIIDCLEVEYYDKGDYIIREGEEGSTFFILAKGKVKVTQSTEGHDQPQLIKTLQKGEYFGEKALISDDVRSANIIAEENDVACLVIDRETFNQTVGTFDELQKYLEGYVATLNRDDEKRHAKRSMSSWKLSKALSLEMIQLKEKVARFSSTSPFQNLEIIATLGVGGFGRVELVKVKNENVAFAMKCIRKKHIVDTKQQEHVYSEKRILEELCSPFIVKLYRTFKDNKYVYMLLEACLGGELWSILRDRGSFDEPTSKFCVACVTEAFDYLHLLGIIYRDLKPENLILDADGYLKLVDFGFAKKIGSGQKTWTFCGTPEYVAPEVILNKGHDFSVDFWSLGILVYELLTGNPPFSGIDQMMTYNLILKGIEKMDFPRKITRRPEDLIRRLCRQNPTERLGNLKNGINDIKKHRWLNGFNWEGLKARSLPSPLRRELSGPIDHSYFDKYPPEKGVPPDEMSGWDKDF
As to the kind of experiment: co-IP; GFP-Trap-A (Chromotek): lysates of HEK293 cells coexpressing cGKII-GFP and myc-tagged portions of the HCN2 C-terminus; immunoblot with anti-myc.

The target in assay [2] is T2, cGMP-dependent protein kinase II (mouse) (UniProt Q61410).
T2 sequence: T1 sequence
Description: co-IP; lysates of HEK293 cells coexpressing HCN2 and cGKII; IP with anti-cGKII antibody and protein A-Sepharose overnight at 4°C; lysis buffer with 1% Triton X-100, 150 mM NaCl; wash with 300 mM KCl; immunoblot for HCN2. Background: In western blotting, separated proteins are transferred to a membrane and probed.

The target of assay [3] is T3, cGMP-dependent protein kinase II, endogenous in mouse hypothalamus (mouse (endogenous in hypothalamus)) (UniProt Q61410).
T3 sequence: T1 sequence
As to the kind of experiment: co-IP; protein extracts of mouse hypothalamus (WT and HCN2-KO); IP with anti-cGKII antibody and protein A-Sepharose overnight at 4°C; immunoblot for HCN2.

B1: myc-tagged distal C-terminus of the HCN2 channel (aa 647-863) (domain or fragment, UniProt O88703 647-863)
chain: VQHDLSSGVFNNQENAIIQEIVKYDREMVQQAELGQRVGLFPPPPPPQVTSAIATLQQAVAMSFCPQVARPLVGPLALGSPRLVRRAPPGPLPPAASPGPPAASPPAAPSSPRAPRTSPYGVPGSPATRVGPALPARRLSRASRPLSASQPSLPHGVPAPSPAASARPASSSTPRLGPAPTARTAAPSPDRRDSASPGAASGLDPLDSARSRLSSNL
With B1, the binding entry in assay [1] was “no binding”.

B2: HCN2 channel (hyperpolarization-activated cyclic nucleotide-gated channel 2), full length (protein, UniProt O88703 1-863)
chain: MDARGGGGRPGDSPGTTPAPGPPPPPPPPAPPQPQPPPAPPPNPTTPSHPESADEPGPRARLCSRDSACTPGAAKGGANGECGRGEPQCSPEGPARGPKVSFSCRGAASGPSAAEEAGSEEAGPAGEPRGSQASFLQRQFGALLQPGVNKFSLRMFGSQKAVEREQERVKSAGAWIIHPYSDFRFYWDFTMLLFMVGNLIIIPVGITFFKDETTAPWIVFNVVSDTFFLMDLVLNFRTGIVIEDNTEIILDPEKIKKKYLRTWFVVDFVSSIPVDYIFLIVEKGIDSEVYKTARALRIVRFTKILSLLRLLRLSRLIRYIHQWEEIFHMTYDLASAVMRICNLISMMLLLCHWDGCLQFLVPMLQDFPSDCWVSINNMVNHSWSELYSFALFKAMSHMLCIGYGRQAPESMTDIWLTMLSMIVGATCYAMFIGHATALIQSLDSSRRQYQEKYKQVEQYMSFHKLPADFRQKIHDYYEHRYQGKMFDEDSILGELNGPLREEIVNFNCRKLVASMPLFANADPNFVTAMLTKLKFEVFQPGDYIIREGTIGKKMYFIQHGVVSVLTKGNKEMKLSDGSYFGEICLLTRGRRTASVRADTYCRLYSLSVDNFNEVLEEYPMMRRAFETVAIDRLDRIGKKNSILLHKVQHDLSSGVFNNQENAIIQEIVKYDREMVQQAELGQRVGLFPPPPPPQVTSAIATLQQAVAMSFCPQVARPLVGPLALGSPRLVRRAPPGPLPPAASPGPPAASPPAAPSSPRAPRTSPYGVPGSPATRVGPALPARRLSRASRPLSASQPSLPHGVPAPSPAASARPASSSTPRLGPAPTARTAAPSPDRRDSASPGAASGLDPLDSARSRLSSNL
On to B2, for which the binding result in assay [2] was “binds”.

B3: HCN2, endogenous in mouse hypothalamus (protein, UniProt O88703 1-863)
chain: B2 chain
B3: the binding entry in assay [3] is recorded as “binds”.

B4: myc-tagged combined C-linker/cyclic-nucleotide binding domain of HCN2 (aa 443-647) (domain or fragment, UniProt O88703 443-647)
chain: DSSRRQYQEKYKQVEQYMSFHKLPADFRQKIHDYYEHRYQGKMFDEDSILGELNGPLREEIVNFNCRKLVASMPLFANADPNFVTAMLTKLKFEVFQPGDYIIREGTIGKKMYFIQHGVVSVLTKGNKEMKLSDGSYFGEICLLTRGRRTASVRADTYCRLYSLSVDNFNEVLEEYPMMRRAFETVAIDRLDRIGKKNSILLHKV
With B4, the binding entry in assay [1] is “binds”.

B5: myc-tagged C-linker of HCN2 (aa 443-525) (domain or fragment, UniProt O88703 443-525)
chain: DSSRRQYQEKYKQVEQYMSFHKLPADFRQKIHDYYEHRYQGKMFDEDSILGELNGPLREEIVNFNCRKLVASMPLFANADPNF
For the molecule B5, the binding result in assay [1] is on record as “no binding”.
